PubChem BioAssay AID652106 (National Center for Advancing Translational Sciences (NCATS), 2013)
Hit rate of the full screen: of about 370,000 compounds, about 500 (0.14%) were called active. Inconclusive means that the source gave no clear call. Such entries were picked first, then a sample of the others. The call rests on the fitted dose curve; in most records, active means well fitted activation curve with a large enough effect; inconclusive means small, poorly fitted or top-dose-only effect; inactive means no such curve, though single readings can be large or run the other way. Potencies of inconclusive entries are doubtful fits and often do not repeat.

test: qHTS of alpha-syn Inhibitors; conditions: Yeast expressing alpha-synuclein, BacTiter-Glo, 24 h; Potency: growth rescue unless noted; growth rescue (activation): at 46.1 µM (top of the series) unless noted; further: nearly all actives have a fitted effect of over 65% in size; on growth rescue (activation): % of control where 0% means no effect
Outline: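 Screening used galactose-induced yeast with toxic alpha-synuclein levels, exposed to compound for 24 hr at 30 deg C. Cell growth, read with BacTiter-Glo luminescence, gave the measured signal.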
Potency means the concentration at half of the fitted maximal effect; tags describe the fitted curve by direction and shape.

SMILES | Potency | growth rescue (activation)
O=C(OCCN1CCN(C2=NS(=O)(=O)c3ccccc32)CC1)c1ccccc1F | inconclusive: 35.5 µM [activator, single point] | 
COc1ccc(NC(=O)CC2Sc3ncnn3C2=O)cc1 (stereo unspecified) | inconclusive: 3.16 µM [activator, single point] | 
CC(C)(C)OC[C@H](NC(=O)c1[nH]cnc1C(=O)Nc1ccccc1F)C(=O)OC(C)(C)C | inconclusive: 4.47 µM [activator, partial curve] | 
Cc1c(Cl)cccc1N(Cc1ccc(C(=O)O)cc1)S(=O)(=O)c1ccccc1 | inconclusive: 22.4 µM [activator, partial curve, poor fit] | 
Cc1cc(N2CCCC2)nc2ccc(NC(=S)NCCCN3CCC(C)CC3)cc12 |  | inactive: 2.5%
COc1ccc(-c2nnc(Nc3nc4c(OC)cccc4s3)o2)c(OC)c1 | inconclusive: 35.5 µM [activator, single point] | 
COc1cccc(NC(=O)CN(c2ccccc2OC)S(=O)(=O)c2cccs2)c1 |  | inconclusive: 94.3% [activator] [at 1.84 µM]
COc1ccc2oc(=O)c(C(=O)N3CCCC3)cc2c1 | inconclusive: 22.4 µM [activator, single point] | 
CC1=CC(C)(C)N(C(=O)c2ccccc2)c2ccc(C)cc21 | inconclusive: 31.6 µM [activator, single point] | 
Cc1noc(C)c1C(=O)Nc1cccc(S(=O)(=O)N2CCOCC2)c1 | inconclusive: 3.55 µM [activator, single point] | 
O=C(CN1CCN(c2ccccn2)CC1)N1CCc2ccccc21 | inconclusive: 22.4 µM [activator, single point] | 
Cc1cccc(C(=O)N2CCC(C)(C(=O)NS(=O)(=O)C3CC3)C2)c1C (stereo unspecified) |  | inactive: 6.62%
Cc1cccc(C(=O)NCC(=O)OCC(=O)c2ccc(Br)s2)c1 | inconclusive: 22.4 µM [activator, single point] | 
CN1CCc2c(sc3nc(SCC(N)=O)n(-c4ccccc4)c(=O)c23)C1 |  | inactive: 2.2%
C[n+]1ccc(CC2C(=[N+]([O-])[O-])C=Nc3ncnn32)cc1 (stereo unspecified) | inconclusive: 6.31 µM [activator, single point] | 
COc1ccc(C2CC(c3cccc(Cl)c3)=NN2c2ccc(S(N)(=O)=O)cc2)cc1 (stereo unspecified) | inconclusive: 35.5 µM [activator, single point] | 
O=C(NCCN1CCOCC1)c1cn(CCc2ccccc2)nn1 | inconclusive: 5.62 µM [activator, single point] | 
CC1CCN(C2CCN(S(=O)(=O)c3ccc(F)cc3)CC2)CC1 |  | inactive: -0.763%
O=C(CNC(=O)c1ccco1)Nc1ccc(N2CCCCCC2)cc1 | inconclusive: 35.5 µM [activator, single point] | 
CCCCNC(=O)C1(C)CCN1Cc1cccc2c(OC)cc(C(=O)OCC)cc12 (stereo unspecified) | inconclusive: 14.1 µM [activator, partial curve] | 
Cc1cc(C(=O)NC2CCC(C)CC2)c(C)o1 (stereo unspecified) | inconclusive: 25.1 µM [activator, single point] | 
O=C(c1ccc(Cl)c(Cl)c1)N1CCC(=O)N(C(COCc2cccc(C(F)(F)F)c2)Cc2ccccc2)CC1 (stereo unspecified) | inconclusive: 12.6 µM [activator, single point] | 

SMILES | Potency | growth rescue (activation)
O=C1S/C(=C\c2ccc(N3CCOCC3)o2)C(=O)N1Cc1c(F)cccc1Cl | inconclusive: 3.55 µM [activator, partial curve] | 
Cc1cc(C(=O)COc2ccc(F)cc2Br)c(C)n1C1CC1 | inconclusive: 11.2 µM [activator, partial curve] | 
Cc1ccc(C)c(NS(=O)(=O)c2ccccc2C)c1 | inconclusive: 10 µM [activator, partial curve] | 
CCC1=C(OC(=O)N(CC)CC)N2C(=O)OC(=NCC(=O)OC)[C@]2(C)[C@H]2C1=CC[C@H]1C(=O)N(CC)C(=O)[C@H]12 | inconclusive: 35.5 µM [activator, single point] | 
CCC1(C(=O)c2ccc(Cl)cc2)C2c3ccccc3OC(=O)C21C(=O)Nc1ccccc1 (stereo unspecified) | active: 14.1 µM | 
CCCCCCn1c(-c2cccs2)n[nH]c1=S |  | inactive: 1.74%
CCCn1[nH]cc(SC)c(=O)c1=O | inconclusive: 11.2 µM [activator, single point] | 
COCC(=O)O[C@]1(CCN(C)CCCc2nc3ccccc3[nH]2)CCc2cc(F)ccc2[C@@H]1C(C)C | inconclusive: 29.1 µM [activator, single point] | 
CC(=O)N(c1ccc2oc(=O)sc2c1)S(=O)(=O)c1ccc(C)cc1 | inconclusive: 31.6 µM [activator, single point] | 
COc1ccc(CCNC(=O)C(=O)NCC2OCCN2S(=O)(=O)c2ccc(OC)c(OC)c2)cc1OC (stereo unspecified) | inconclusive: 31.6 µM [activator, single point] | 
CC(C)C[C@H]1CN([C@@H](Cc2ccc(O)cc2)CN2CCCC2CN2C(=S)NC[C@@H]2Cc2ccccc2)C(=S)N1CC1CCCCC1 (stereo partly specified) | inconclusive: 5.62 µM [activator, single point] | 
COc1ccc([C@@H]2CC=C(C(=O)O)[C@H](c3cccc(Cl)c3)N2S(=O)(=O)c2ccc(Cl)cc2)cc1 |  | inactive: -0.346%
O=C(Cn1cnc2onc(-c3ccc(F)cc3)c2c1=O)N1CCN(c2ccccc2F)CC1 | inconclusive: 20 µM [activator, single point] | 
COc1ccccc1N1CCN(C(=O)c2c(-c3c(F)cccc3Cl)noc2C)CC1 | inconclusive: 2.82 µM [activator, partial curve] | 
O=C(CSC1=NS(=O)(=O)c2ccccc21)Nc1ccccc1 | inconclusive: 12.6 µM [activator, partial curve] | 
Cc1cc(C(=O)COC(=O)Cc2n[nH]c(=O)c3ccccc23)c(C)n1-c1ccc2c(c1)OCO2 | inconclusive: 31.6 µM [activator, single point] | 
COc1ccc([C@H]2N[C@]3(CCCN(Cc4ccc(C(F)(F)F)cc4)C3=O)[C@H]3C(=O)N(Cc4ccccc4)C(=O)[C@@H]23)cc1 | inconclusive: 22.4 µM [activator, single point] | 
Cc1cc(Cl)ccc1-c1nc(NC(C)C)nc2ccsc12 |  | inconclusive: -31.8% [activator]
Clc1ccc(-c2nc3ccc(Br)cn3c2Cc2cccc(Cl)c2)cc1 |  | inactive: 2.48%
Cc1ccc2c(c1)-c1c(cnn1CC(=O)N(Cc1ccco1)C1CCCCC1)CO2 |  | inactive: 14.7%
Cc1c(C=O)c2ccccn2c1C(=O)c1cccs1 | inconclusive: 11.2 µM [activator, partial curve] | 
CC(C)c1cc2c(c(O)c1O)[C@@]13CCCC(C)(C)C1CC2OC3=O (stereo partly specified) | inconclusive: 25.1 µM [activator, single point] | 

SMILES | Potency | growth rescue (activation)
CC(C)(C)n1nc(-c2ccc(F)cc2)c2c(N)ncnc21 | inconclusive: 1.78 µM [activator, partial curve] | 
COc1ccc(OC)c(NC(=O)CSc2nnc(C3CCCCC3)n2-c2ccccc2)c1 |  | inactive: -3.66%
CCCCN1C(=O)C(CC(=O)NCc2cccc3ccccc23)CC(C(=O)N(CC)CC)=C1C (stereo unspecified) | inconclusive: 5.62 µM [activator, single point] | 
CSc1nnc(C(C)(C)C)c(=O)n1/N=C/c1ccccc1 |  | inactive: 21.1%
O=C(NCc1ccccc1Cl)c1cccc(C(F)(F)F)c1 |  | inactive: 7.43%
CCCSc1nc2c(c(=O)[nH]c(=O)n2C)n1Cc1ccccc1 | inconclusive: 35.5 µM [activator, single point] | 
COc1ccc2c(c1)C(=O)N(c1ccccc1C)C(=O)C2(C)C | inconclusive: 12.6 µM [activator, partial curve] | 
Cc1ccc2nc(NC(=O)c3ccccn3)sc2c1 | active: 7.08 µM | 
CC1(C(=O)NS(=O)(=O)c2ccc(Br)cc2)CCN1C(=O)C1(c2ccccc2)CC1 (stereo unspecified) |  | inactive: 5.88%
COc1ccc(N/C=C/C(=O)c2ccc(OC)c(OC)c2)cc1 | inconclusive: 3.55 µM [activator, single point] | 
O=C(Cn1cc(SCc2cccc(Cl)c2)c2ccccc21)N1CCOCC1 | inconclusive: 35.5 µM [activator, single point] | 
CCOc1cc(C(=O)O/N=C(\N)c2ccccn2)cc(OCC)c1OCC |  | inactive: -23.9%
Cc1nn(CC(=O)Nc2nccs2)c(C)c1[N+](=O)[O-] | inconclusive: 31.6 µM [activator, single point] | 
O[C@H]1CN(CC2CCCCC2)[C@@H](c2ccccc2)C[C@@H]1n1cc(C2CC2)nn1 | inconclusive: 5.62 µM [activator, single point] | 
CC(=O)NC(O)C(=O)c1ccccc1 (stereo unspecified) |  | inactive: 10.7%
COc1ccccc1NC(=O)c1ccc[n+]([O-])c1 | inconclusive: 2.82 µM [activator, single point] | 
CC1(C(=O)Nc2ccccc2)Cc2c(-c3ccc4c(c3)OCO4)ccnc2O1 (stereo unspecified) | inconclusive: 31.6 µM [activator, single point] | 
CCN(C(=O)COC(=O)CSc1ccc(F)cc1)c1c(N)n(Cc2ccccc2)c(=O)[nH]c1=O | inconclusive: 31.6 µM [activator, single point] | 
COc1ccccc1N1CCN(S(=O)(=O)CCNC(=O)c2ccco2)CC1 | inconclusive: 5.62 µM [activator, single point] | 
COc1ccc(C(=O)NCc2cccnc2)cc1 | inconclusive: 20 µM [activator, single point] | 
COc1ccc(N2C(=O)c3ccccc3NC2c2ccc(OC)c(Cn3nnc4ccccc43)c2)cc1 (stereo unspecified) |  | inactive: -0.458%
Cc1ccc(SC(C)c2nc(-c3ccncc3)no2)cc1 (stereo unspecified) | inconclusive: 5.62 µM [activator, single point] | 
